# Assay results taken from the RNAGym collection of RNA variant scans (doi:10.7554/elife.90254).
# The source gives no read counts; variants with many changes may rest on few reads.
# B1: LINE1-mini (parent)
# chain: GGCAGAGCUCAACACAGCGUGGCAAAGUGGCUGUGGCUAGACUGCC
# Variants of: B1
# Assay: self-cleavage, relative activity (ratio to wild type); higher = more cleavage; in vitro, sequencing; the parent is a self-cleaving ribozyme
row,Variant,self-cleavage
1,C18G U32G G33C G36A C42U,0.04
2,C18G A24G C31U,0
3,C18G A24U U32G,0.09
4,C18A G30A U34G C37G,0.01
5,C18A U20G G21U,0.16
6,C18G U20G G22U C42A,0.04
7,C18U U34C G44C,0.03
8,C18U G21U C37U,0.06
9,C18U U28C U32G,0.07
10,C18A U32G C46G,0.02
11,C18G G27U C45A,0.2
12,C18A U20G G44U,0.04
13,C18U U20A C31A U43A,0.05
14,C18U G27C C45G,0.37
15,C18U G21C A24U U28C,0.46
16,G19A A25C U43A G44A,0.03
17,C18A U28C G35U,0.1
18,C18U G19A G21A G27U G29C U32A,0.34
19,C18A U20A G21A C42G,0
20,C18G A24C C37U,0.02
21,C18G G21A U28A,0.15
22,C18G U32C G33A,0.05
23,C18G G19C U28C G33U C46G,0.27
24,C18G G35C C42U,0.08

row,Variant,self-cleavage
1,C18U G44C C46U,0.06
2,C18U C23A G35A,0.06
3,C18A U32G C45U,0.04
4,C18A U32G C45A,0.03
5,C18G C31G A39C,0
6,C18A U20C A41U,0.15
7,C18A G35A C45A,0.08
8,C18A G22U A25C,0.66
9,C18U A24C G44C C45U,0.12
10,C18A G35C G36A,0.13
11,C18U G40U C45G,0.02
12,C18G G19A A24C G27C G30A C31A,0.14
13,C18U G40A A41U,0.2
14,C18A G30C U34C C45A,0.01
15,C18A U28A U32A,0.02
16,C18G A25U G27U U32C C42G,0.03
17,C18U G29C G40A G44U,0.03
18,C18A G27U U28C,0.04
19,C18A G27A U28A,0.21
20,C18U U20G G22U,0.79
21,C18G A24U A26U,0.07
22,C18U U20C G21A U32C,0.2
23,C18U C37U U38C G40U C42A,0.04
24,C18U C23A U43A C45U,0.05

row,Variant,self-cleavage
1,C18G U20G U28G,0.02
2,C18A U20G U43A,0.04
3,C18U G36C G44U,0.07
4,C18U G36C G44A,0.06
5,C18U G19U G30A C37G,0.03
6,C18U G21U G29U G35A,0.12
7,C18G G40U C45U,0.03
8,C18A G44C C46G,0.02
9,C18U A25G G35U,0.03
10,C18U G22U U32A,0.03
11,C18U G30C G35U,0.04
12,C18U G29U U38A,0.1
13,C18U G29U U38C,0.68
14,C18U G19A C45G,0.09
15,C18U G22C G33C G36C,0.02
16,C18U U34A A41U C42A C46U,0.07
17,C18A G33U G36A,0.06
18,C18G G21C G40U,0.01
19,C18A G30A A39G G44A,0.06
20,C18U G21U C31A,0.09
21,C18G A24G G27U G33A,0.02
22,C18A U20A G22A,0.68
23,C18U C23A G33A G35C U38C,0.05
24,C18A U28C G29U G36U C37U,0.01

row,Variant,self-cleavage
1,C18U G27U G30U C45G,0.08
2,C18A U20A U38C,0.08
3,C18A U38A A39U,0.61
4,C18A G27U C31A U38A C42U,0.07
5,C18G G19U U38C C42U,0.04
6,C18U U20G G33U,0.02
7,C18U U32C G33U,0.02
8,C18A U43C C45U,0.04
9,C18G A26U G27U G44A,0.2
10,C18G U32A A39G C46A,0
11,C18G G22U U43A,0.02
12,C18U A24G U28C C45U,0.28
13,C18U C31G C37A,0.06
14,C18G G27A U32A U38C C45A,0.1
15,C18A G44U C46A,0.12
16,C18U G22C A39C C46U,0.15
17,C18A G22U C23A,1.12
18,C18G G22U A26C,0.63
19,C18U U28A C31U U34G,0.02
20,C18G G29C U34C,0.02
21,C18U G29U G30C C45U,0.36
22,C18A U20A C45A,0.29
23,C18G U32C A39U,0.01
24,C18U G36U U43A,0.02

row,Variant,self-cleavage
1,C18G A39C C42U,0.05
2,C18A U20A G33C G36C,0.01
3,C18G A24U C42G,0
4,C18U A25C U38A C46G,0.13
5,C18G A26U G27C U32G C42U,0.01
6,C18A G30U C42G U43A,0
7,C18G C23U G35A G36U,0.04
8,C18G G21A C23A G30C C31U,0.11
9,C18U A24U C31G G44U,0.04
10,C18G C37U C46U,0.07
11,C18U A25G A39C,0.24
12,G19A A24U G27A G30A,0.31
13,C18A G27A G29C,1.23
14,C18U G19U U32G A39C,0.01
15,C18G C31G G33A A41U,0.03
16,C18U G22U C31G G35A C37G,0.01
17,C18U G29U G33A,0.09
18,C18U A26U C37U,0.14
19,C18G G19U G27U,0.1
20,C18G G29U G44A,0.49
21,C18U G22C U38C C45U,0.03
22,C18U G36U G44U,0.02
23,C18U G36C A39G C42A C45G,0.02
24,C18A G29C C37U,0.04

row,Variant,self-cleavage
1,C18A U20A A25U A26G,2.13
2,C18U A26U A41G,1.1
3,C18U G33U U34G A41G,0
4,C18A G35A A41U,0.01
5,C18A G22U C37A C45A,0.12
6,C18U U34A C45U,0.05
7,G19A A24G U28G C42U,0.1
8,C18G G22U C23A G27U C31G U34C,0.15
9,C18A U34G A41G,0.02
10,C18U G40C C46A,0.04
11,C18U G33A G35C A39G,0.02
12,C18G C23A C31U,0.02
13,G19A A24G G27U G35U C42U,0.03
14,C18G U20C A26G,0.02
15,C18U U28A C31G U34C C46G,0.01
16,C18A U32G C37A,0
17,C18A G27C G29C U43A,0.06
18,C18G G22U G30U G35C,0.03
19,C18U C23A A24U G33U G40C,0.02
20,C18G G19A G29A C37G,0.05
21,C18A G44A C45G,0.09
22,C18G G27U U28A,0.07
23,C18U G27A A39U,1.42
24,C18U G35C C42A C46G,0

row,Variant,self-cleavage
1,C18A G35C U43G,0
2,C18G G40A A41C C45G,0.04
3,C18G G21U U43G,0
4,C18G C23A G40C C42A G44A,0.05
5,C18U U32C G33A G36C,0.01
6,C18G G29A U32G G40A,0.11
7,C18A G22U C23A C42G,0.03
8,C18U G21U A39G,0.08
9,C18A U20C A26U G40U,0.02
10,C18U G22C C45A,0.22
11,C18U G22C G35C,0
12,C18U C45A C46U,0.08
13,C18U A25C C46A,0.06
14,C18U C31A U32G,0.03
15,C18U U32C U43A,0.03
16,C18U G30C C46U,0.11
17,C18G A25U G35C,0.06
18,C18U G19A G29C,0.19
19,C18U G21C G29C C31U,0.48
20,C18A G27U U43C G44U,0.05
21,C18A G36U C37U,0.04
22,C18A U20C G27U,0.1
23,C18U G44U C46A,0.11
